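Tested at 5 concentrations; 48 h exposure; 96-well plates; endpoints linearly interpolated, else capped at highest concentration. At the GI50, growth is halved. TGI: concentration producing complete growth inhibition.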
Tested on: NCI-H322M lung
Experiment: inhibition of tumour cell growth, NCI panel, 48 h

## O=C(O)c1ccccc1-c1ccccc1C(=O)Nc1ccc2c(c1)Cc1ccccc1-2
  TGI: > 100 µM

## COC(=O)C(=O)c1cc2ccccc2n1S(=O)(=O)c1ccccc1
  TGI: > 100 µM

## COC[C@@H]1Cc2cc(OC)c3c(c2[C@H](c2ccc(OC)c(OC)c2)[C@H]1COC)OCO3
  TGI: > 100 µM

## O=C(O)c1cccc(S(=O)(=O)NN2C(=O)CSC2c2ccccc2Cl)c1 (configuration not stated)
  TGI: > 100 µM

## O=C1CCCC(=O)N1n1c(Cc2ccc(Cl)cc2)n[nH]c1=O
  TGI: > 100 µM

## CC(C)CNC(=O)c1c(NC(=O)c2ccccc2)sc2[nH]c(=O)n(-c3ccccc3)c(=O)c12
  TGI: > 100 µM

## O=c1[nH]cc(CO)c(=O)[nH]1
  GI50: > 100 µM
  TGI: > 100 µM

## Cc1ccc(S(=O)(=O)C(C#N)c2nc3ccccc3nc2N2CCOCC2)cc1 (configuration not stated)
  TGI: 55.2 µM

## CC(C)[Si](Oc1cc2c3c(ccc2c(O)c1[C@@H](C)CO[Si](C)(C)C(C)(C)C)C(C)(C)CCC3)(C(C)C)C(C)C
  TGI: > 100 µM

## CCOc1ccc(/C=N\N2C(=O)c3ccccc3C2=O)cc1
  TGI: > 100 µM

## O=C1CC(NC2CC(=O)c3c(Br)sc(Br)c32)c2c(Br)sc(Br)c21 (configuration not stated)
  TGI: 26.1 µM

## Cc1no[n+]([O-])c1/C=N/NS(=O)(=O)c1ccccc1
  TGI: > 100 µM

## C[C@]12CC[C@H]3[C@@H](CC=C4C[C@@H](O)CC[C@@]43C)[C@@H]1C[C@H](N1CCOCC1)[C@@H]2O
  TGI: > 100 µM

## NC(Cc1ccc(O)cc1)C(=O)N/N=C/c1ccc(N(CCCl)CCCl)cc1 (configuration not stated)
  GI50: 39.9 µM
  TGI: > 100 µM

## COC(=N)c1ncn(Cc2ccccc2)c1N
  TGI: > 100 µM

From PubChem BioAssay (NCI)
